# Experimental data as given in the supplement of paper PMC8728848.
# The other results are listed elsewhere or left out.
# B1: Gal 3 (Homo sapiens), P17931 (protein)
# chain: MADNFSLHDALSGSGNPNPQGWPGAWGNQPAGAGGYPGASYPGAYPGQAPPGAYPGQAPPGAYHGAPGAYPGAPAPGVYPGPPSGPGAYPSSGQPSAPGAYPATGPYGAPAGPLIVPYNLPLPGGVVPRMLITILGTVKPNANILDFQRGNDVAFHFNPRFNENNRRVIVCNTKLDNNWGREESQSVFPFESGKPFKIQVLVEPDHFKVAVNDAHLLQYNHRVKKLNEISKLGISGDIDLTSASYTMI
# Key:
# Experiment in all cases: glycan array binding signal (z-score within array); higher = stronger binding
# Details in all cases: glycan notation: IUPAC condensed, linker removed; mutation: R186S
# [1] = biological target: Neu5Ac(a2-3)Gal6S(b1-4)[Fuc(a1-3)]GlcNAc
# Summary of the method: (§1)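 Glycan array data came from 3228 arrays in the Consortium for Functional Glycomics database, and only arrays with an available protein sequence were kept. Glycan names were put into IUPAC-condensed notation, and columns mapping to the same glycan were averaged. The binding signal is a within-array Z-score, averaged across arrays of one protein sequence run at different concentrations or buffers and across linkers. A negative Z-score can be read as non-binding.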
# Neu5Ac(a2-3)GalNAc = biological target: Neu5Ac(a2-3)GalNAc
# Summary of the method: as §1
# [2] = biological target: Neu5Ac(a2-3)GalNAc(b1-4)GlcNAc
# Summary of the method: as §1
# [3] = biological target: Neu5Ac(a2-3)[GalNAc(b1-4)]Gal(b1-4)Glc
# Summary of the method: as §1
# [4] = biological target: Neu5Ac(a2-3)[GalNAc(b1-4)]Gal(b1-4)GlcNAc
# Summary of the method: as §1
# [5] = biological target: Neu5Ac(a2-3)[GalNAc(b1-4)]Gal(b1-4)GlcNAc(b1-3)GalNAc
# Summary of the method: as §1
# [6] = biological target: Neu5Ac(a2-3)[Neu5Ac(a2-6)]GalNAc
# Summary of the method: as §1
# Neu5Ac(a2-6)Gal = biological target: Neu5Ac(a2-6)Gal
# Summary of the method: as §1
# Neu5Ac(a2-6)Gal(b1-4)Glc = biological target: Neu5Ac(a2-6)Gal(b1-4)Glc
# Summary of the method: as §1
# [7] = biological target: Neu5Ac(a2-6)Gal(b1-4)GlcNAc
# Summary of the method: as §1
# [8] = biological target: Neu5Ac(a2-6)Gal(b1-4)GlcNAc(b1-2)Man(a1-3)Man(b1-4)GlcNAc(b1-4)GlcNAc
# Summary of the method: as §1
# [9] = biological target: Neu5Ac(a2-6)Gal(b1-4)GlcNAc(b1-2)Man(a1-3)[Gal(b1-4)GlcNAc(b1-2)Man(a1-6)]Man(b1-4)GlcNAc(b1-4)GlcNAc
# Summary of the method: as §1
# [10] = biological target: Neu5Ac(a2-6)Gal(b1-4)GlcNAc(b1-2)Man(a1-3)[GlcNAc(b1-2)Man(a1-6)]Man(b1-4)GlcNAc(b1-4)GlcNAc
# Summary of the method: as §1
# [11] = biological target: Neu5Ac(a2-6)Gal(b1-4)GlcNAc(b1-2)Man(a1-3)[GlcNAc(b1-2)Man(b1-4)GlcNAc(b1-2)Man(a1-6)]Man(b1-4)GlcNAc(b1-4)GlcNAc
# Summary of the method: as §1
# [12] = biological target: Neu5Ac(a2-6)Gal(b1-4)GlcNAc(b1-2)Man(a1-3)[Man(a1-6)]Man(b1-4)GlcNAc(b1-4)GlcNAc
# Summary of the method: as §1
# [13] = biological target: Neu5Ac(a2-6)Gal(b1-4)GlcNAc(b1-2)Man(a1-3)[Neu5Ac(a2-6)Gal(b1-4)GlcNAc(b1-2)Man(a1-6)]Man(b1-4)GlcNAc(b1-4)GlcNAc
# Summary of the method: as §1
# [14] = biological target: Neu5Ac(a2-6)Gal(b1-4)GlcNAc(b1-2)Man(a1-6)Man(b1-4)GlcNAc(b1-4)GlcNAc
# Summary of the method: as §1
# [15] = biological target: Neu5Ac(a2-6)Gal(b1-4)GlcNAc(b1-2)Man(a1-6)[Gal(b1-4)GlcNAc(b1-2)Man(a1-3)]Man(b1-4)GlcNAc(b1-4)GlcNAc
# Summary of the method: as §1
# [16] = biological target: Neu5Ac(a2-6)Gal(b1-4)GlcNAc(b1-2)Man(a1-6)[GlcNAc(b1-2)Man(a1-3)]Man(b1-4)GlcNAc(b1-4)GlcNAc
# Summary of the method: as §1
# [17] = biological target: Neu5Ac(a2-6)Gal(b1-4)GlcNAc(b1-2)Man(a1-6)[Man(a1-3)]Man(b1-4)GlcNAc(b1-4)GlcNAc
# Summary of the method: as §1
# [18] = biological target: Neu5Ac(a2-6)Gal(b1-4)GlcNAc(b1-3)Gal(b1-3)GlcNAc
# Summary of the method: as §1
# [19] = biological target: Neu5Ac(a2-6)Gal(b1-4)GlcNAc(b1-3)Gal(b1-4)GlcNAc
# Summary of the method: as §1
# [20] = biological target: Neu5Ac(a2-6)Gal(b1-4)GlcNAc(b1-3)Gal(b1-4)GlcNAc(b1-3)Gal(b1-4)GlcNAc
# Summary of the method: as §1
# [21] = biological target: Neu5Ac(a2-6)Gal(b1-4)GlcNAc(b1-3)Gal(b1-4)[Fuc(a1-3)]GlcNAc(b1-3)Gal(b1-4)[Fuc(a1-3)]GlcNAc
# Summary of the method: as §1
# [22] = biological target: Neu5Ac(a2-6)Gal(b1-4)GlcNAc(b1-3)GalNAc
# Summary of the method: as §1
# [23] = biological target: Neu5Ac(a2-6)Gal(b1-4)GlcNAc6S
# Summary of the method: as §1
# Neu5Ac(a2-6)GalNAc = biological target: Neu5Ac(a2-6)GalNAc
# Summary of the method: as §1
# [24] = biological target: Neu5Ac(a2-6)GalNAc(b1-4)GlcNAc
# Summary of the method: as §1
# [25] = biological target: Neu5Ac(a2-6)GlcNAc(b1-4)GlcNAc
# Summary of the method: as §1
# [26] = biological target: Neu5Ac(a2-6)GlcNAc(b1-4)GlcNAc(b1-4)GlcNAc
# Summary of the method: as §1
# Neu5Ac(a2-8)Neu5Ac = biological target: Neu5Ac(a2-8)Neu5Ac
# Summary of the method: as §1
# [27] = biological target: Neu5Ac(a2-8)Neu5Ac(a2-3)Gal(b1-4)Glc
# Summary of the method: as §1
# [28] = biological target: Neu5Ac(a2-8)Neu5Ac(a2-3)[GalNAc(b1-4)]Gal(b1-4)Glc
# Summary of the method: as §1
# [29] = biological target: Neu5Ac(a2-8)Neu5Ac(a2-8)Neu5Ac
# Summary of the method: as §1
# [30] = biological target: Neu5Ac(a2-8)Neu5Ac(a2-8)Neu5Ac(a2-3)Gal(b1-4)Glc
# Summary of the method: as §1
# [31] = biological target: Neu5Ac(a2-8)Neu5Ac(a2-8)Neu5Ac(a2-3)[GalNAc(b1-4)]Gal(b1-4)Glc
# Summary of the method: as §1
# [32] = biological target: Neu5Ac(a2-8)Neu5Ac(a2-8)Neu5Ac(a2-8)Neu5Ac(a2-3)[GalNAc(b1-4)]Gal(b1-4)Glc
# Summary of the method: as §1
# [33] = biological target: Neu5Ac(b2-6)Gal(b1-4)GlcNAc
# Summary of the method: as §1
# Neu5Ac(b2-6)GalNAc = biological target: Neu5Ac(b2-6)GalNAc
# Summary of the method: as §1
# [34] = biological target: Neu5Ac9Ac(a2-3)Gal(b1-3)GlcNAc
# Summary of the method: as §1
# [35] = biological target: Neu5Ac9Ac(a2-3)Gal(b1-4)GlcNAc
# Summary of the method: as §1
# [36] = biological target: Neu5Ac9Ac(a2-6)Gal(b1-4)GlcNAc
# Summary of the method: as §1
# [37] = biological target: Neu5Gc(a2-3)Gal(b1-3)GlcNAc
# Summary of the method: as §1
# [38] = biological target: Neu5Gc(a2-3)Gal(b1-3)[Fuc(a1-4)]GlcNAc
# Summary of the method: as §1
# Neu5Gc(a2-3)Gal(b1-4)Glc = biological target: Neu5Gc(a2-3)Gal(b1-4)Glc
# Summary of the method: as §1
# [39] = biological target: Neu5Gc(a2-3)Gal(b1-4)GlcNAc
# Summary of the method: as §1
# [40] = biological target: Neu5Gc(a2-3)Gal(b1-4)[Fuc(a1-3)]GlcNAc
# Summary of the method: as §1
# [41] = biological target: Neu5Gc(a2-6)Gal(b1-4)GlcNAc
# Summary of the method: as §1
# Neu5Gc(a2-6)GalNAc = biological target: Neu5Gc(a2-6)GalNAc
# Summary of the method: as §1
# [42] = biological target: Neu5Gc(b2-6)Gal(b1-4)GlcNAc
# Summary of the method: as §1
binder,measurement,setting,value
B1,glycan array binding signal (z-score),[1],-0.086
same,glycan array binding signal (z-score),Neu5Ac(a2-3)GalNAc,-0.069
same,glycan array binding signal (z-score),[2],-0.062
same,glycan array binding signal (z-score),[3],-0.029
same,glycan array binding signal (z-score),[4],-0.082
same,glycan array binding signal (z-score),[5],-0.078
same,glycan array binding signal (z-score),[6],-0.068
same,glycan array binding signal (z-score),Neu5Ac(a2-6)Gal,-0.036
same,glycan array binding signal (z-score),Neu5Ac(a2-6)Gal(b1-4)Glc,-0.055
same,glycan array binding signal (z-score),[7],-0.065
same,glycan array binding signal (z-score),[8],-0.007
same,glycan array binding signal (z-score),[9],0.028
same,glycan array binding signal (z-score),[10],-0.043
same,glycan array binding signal (z-score),[11],-0.022
same,glycan array binding signal (z-score),[12],-0.043
same,glycan array binding signal (z-score),[13],-0.05
same,glycan array binding signal (z-score),[14],-0.056
same,glycan array binding signal (z-score),[15],-0.053
same,glycan array binding signal (z-score),[16],-0.053
same,glycan array binding signal (z-score),[17],-0.024
same,glycan array binding signal (z-score),[18],-0.061
same,glycan array binding signal (z-score),[19],-0.042
same,glycan array binding signal (z-score),[20],-0.001
same,glycan array binding signal (z-score),[21],-0.061
same,glycan array binding signal (z-score),[22],-0.035
same,glycan array binding signal (z-score),[23],-0.084
same,glycan array binding signal (z-score),Neu5Ac(a2-6)GalNAc,-0.058
same,glycan array binding signal (z-score),[24],-0.073
same,glycan array binding signal (z-score),[25],-0.041
same,glycan array binding signal (z-score),[26],-0.029
same,glycan array binding signal (z-score),Neu5Ac(a2-8)Neu5Ac,-0.069
same,glycan array binding signal (z-score),[27],-0.054
same,glycan array binding signal (z-score),[28],-0.048
same,glycan array binding signal (z-score),[29],-0.045
same,glycan array binding signal (z-score),[30],-0.019
same,glycan array binding signal (z-score),[31],-0.078
same,glycan array binding signal (z-score),[32],-0.053
same,glycan array binding signal (z-score),[33],-0.083
same,glycan array binding signal (z-score),Neu5Ac(b2-6)GalNAc,-0.023
same,glycan array binding signal (z-score),[34],-0.069
same,glycan array binding signal (z-score),[35],-0.035
same,glycan array binding signal (z-score),[36],-0.058
same,glycan array binding signal (z-score),[37],-0.053
same,glycan array binding signal (z-score),[38],-0.066
same,glycan array binding signal (z-score),Neu5Gc(a2-3)Gal(b1-4)Glc,-0.08
same,glycan array binding signal (z-score),[39],-0.048
same,glycan array binding signal (z-score),[40],0.006
same,glycan array binding signal (z-score),[41],-0.063
same,glycan array binding signal (z-score),Neu5Gc(a2-6)GalNAc,-0.086
same,glycan array binding signal (z-score),[42],0.003
